Measurements reported in the supplement of paper PMC11417369.
± gives the standard deviation of the averaged measurements. This is one part of the list.

Each sequence was assayed on PfAP2-LT AP2 domain (GST-tagged) (assay: gcPBM binding intensity (ln(normalized median fluorescence intensity)); higher = stronger DNA binding).
Outline: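 Plasmodium falciparum DNA-binding domains carrying a GST tag were expressed in E. coli and applied for 1 h, at about 25 μg on average, to an Agilent 4 × 180k array. The array held primer-extended double-stranded 36-bp intergenic genomic probes together with negative controls, and binding took place in 1× PBS with 1% milk, 0.2 mg/ml BSA, 0.5% salmon testes DNA and 0.03% Triton X-100. An Alexa488 anti-GST antibody detected bound protein, and the array was scanned at 488 nm. Binding intensity is taken as the highest Masliner-normalised natural-log median intensity across replicate spots of either probe orientation.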

Sequence | gcPBM binding intensity (ln)
ATTAATTTAATTTGAATTATTTTATTATATTATTAT [XGTACX_negctrl_site10] | 8.47 ± 0.44
GTTTGAATATATCAGGTGCATTTATAATTCATATGA | 8.68 ± 0.37
TATATATCTTTATGCACACACAAAGAAAATTTTCCT [CACACA_site7366] | 9.13 ± 0.43
ATAAGAAGAAGAAAAACACACATATGTAAATATATA [CACACA_site3138] | 9.09 ± 0.54
ATATTATAGATATACACACACACATGCATGCACATA [CACACA_site6203] | 9.72 ± 0.17
AGATGAACTAAAAAGGTGCTAAATATGTGACCACTG [GTGCAC_site9406] | 8.78 ± 0.49
TAATTAAATATTTCAGTGCATTATTTTATGATCCAT [GTGCAC_site9456] | 8.69 ± 0.49
ATTTAGAATGTTCCTACACACCAAATTTAAGTGTGC [CACACA_site7161] | 9.27 ± 0.4
TACATACACAGACACACACACATATAAATATAAATA [CACACA_site7641] | 9.78 ± 0.28
TTTTTTTTAGTATGAACACACATATAGATTATAAAA [CACACA_site7391] | 8.35 ± 0.41
TAAAAATATATTATATGTACGTATAACAATGTATGA [XGTACX_site8606] | 8.71 ± 0.39
GTATAATATTCATATTCACACATTAAAATATATTTA [CACACA_site4879] | 8.6 ± 0.33
ACCTAATATTATTAAACATGCACATTTGCATAAATA [TGCATGCA_site870] | 8.68 ± 0.37
CAAAATGAAAGGAAAAGTACATTTAAATGAATAAAT [XGTACX_site8241] | 8.88 ± 0.52
AAATAATTCAAAAAAACACACAAATTACAAAATAAA [CACACA_site269] | 8.92 ± 0.55
AAGGACAACAAACAAACACACACAAAAAAAAAATAA [CACACA_site9263] | 9.6 ± 0.62
AAGAATATAATCTTCACACATATATATATATATATA [CACACA_site5927] | 9.835 ± 0.035
TACACCTGCACGATTGCACACAAATATGTTTTGAAG [CACACA_site8656] | 9.27 ± 0.32
AAAAAAAAAAAAAAAACACACATGTATAATATAATA [CACACA_site2209] | 8.88 ± 0.53
TTATTATTAAAACACACACACAAAAAAAAAAAAAAA [CACACA_site1480] | 9.19 ± 0.4
TTATATATATATATATAATATATATATATTTAAATA [XGTACX_negctrl_site453] | 8.49 ± 0.26
TATAGATGTGGTTTATGTACATACTATAAAAAATCA [XGTACX_site1400] | 8.7 ± 0.49

Sequence | gcPBM binding intensity (ln)
GCAGCAGCATTTTCAGTGCATTATTATATTGTTCAT [GTGCAC_site9926] | 8.89 ± 0.38
TATTATAATACTTATTGTACTTTTAGGTTAATTTAT [XGTACX_site995] | 8.71 ± 0.48
GTAATAAAATGACATACATGCATTACAATTATGTAA [TGCATGCA_site220] | 8.91 ± 0.33
GTTGCACAATGTTACACACACAATATATATCGTTAA [CACACA_site1275] | 9.2 ± 0.33
GTGTACTTTTAAATAGTGCATTTTACAATAATAAAA [GTGCAC_site9653] | 8.4 ± 0.4
TAGTATTAAATATATACACACATATATACATATAGA [CACACA_site2154] | 8.95 ± 0.45
TTAATTTTTTTTTCTTGTACACACTATTTTATAATT [XGTACX_site8783] | 8.97 ± 0.59
AATTGTACGTAGGGGTATAAAAGCTTAAAAATGGGG [CACACA_negctrl_site1392] | 9.43 ± 0.042
AAAGCAAAAGGAAAATAACCAACCCTAATTAACACA [CACACA_negctrl_site530] | 8.96 ± 0.46
CCCTTTTTTTTTTAATGTACATATAATTATATATTT [XGTACX_site8568] | 8.78 ± 0.42
GGAAACCTTTTTTTTACACACAATATATTAAGACTT [CACACA_site4899] | 8.89 ± 0.33
AGATATCTTGTGAAATAAAAAAAATAATTGCTTATA [CACACA_negctrl_site798] | 8.38 ± 0.5
AAATTAGACTATAATACACACATAAAAAAAAAAAAA [CACACA_site6155] | 8.93 ± 0.51
AAAGAAAAAAAAATTACACACATATATTATAGATAT [CACACA_site7495] | 8.93 ± 0.43
TCCTTCGAAACTAAAATTCATTTAAAATATTGATAT [CACACA_negctrl_site369] | 8.21 ± 0.42
TAGGTCCTCATTTTATGTACATAAAGAAATATGATT [XGTACX_site4138] | 8.59 ± 0.34
TACATACATACATACACACACACATATATATATATA [CACACA_site42] | 10 ± 0.27
AAAAAAAATATATAAACACACATATTTATATACGCA [CACACA_site1631] | 8.88 ± 0.38
ATATAAACATTTAGTAATCCATATAGGTACTACTGA [CACACA_negctrl_site1249] | 8.61 ± 0.35
TATTTATAGATATATACACACATATACATATTGTTT [CACACA_site7611] | 9.12 ± 0.44
ATATATGCTAATATATGTACTGATTATATCTCTTCA [XGTACX_site7156] | 8.79 ± 0.49
ATATTATATTATTAATGTACATATATATAATTTTAA [XGTACX_site4974] | 8.46 ± 0.4

Sequence | gcPBM binding intensity (ln)
AAGGCAAACAAACACACACACATATATACCTATATA [CACACA_site5203] | 9.84 ± 0.32
TCTTATCCATATATTACACACTATATATAGAAATTA [CACACA_site291] | 8.66 ± 0.39
AGAAATGAAATCCAAAAACGAGGAACCAATAACGCA [CACACA_negctrl_site1758] | 9.14 ± 0.46
TATACACGCGGACACACACACACACGCAAAAAAAAA [CACACA_site6377] | 10 ± 0.23
TAAAAACCAAAGAAAAGTACAAATTTAAATGAGAAA [XGTACX_site7450] | 8.84 ± 0.61
ATAAGCCATTTTTGTGGTACATAAAATAGATATATA [XGTACX_site5175] | 8.61 ± 0.52
TTTACACCGTAATATGCATGTGTGTATATATTTTTG [TGCATGCA_site186] | 9.05 ± 0.32
ATATATATTTAAAGATGTACATAATGAAATGGTTAT [XGTACX_site4706] | 9.01 ± 0.47
ATATATATATATGTATGTACATATTTTTTTTAACAC [XGTACX_site8475] | 9.39 ± 0.042
GCAGTATTTCGGAACACACAAACATAAATATGTATT [CACACA_site2316] | 9.01 ± 0.38
GCACAATTTACACTTAAACACACAAAAAAAAATTAT [CACACA_site8642] | 9.01 ± 0.41
AAATTTATTTATTATAGTACACTTAATACTACCCAA [XGTACX_site41] | 8.49 ± 0.48
AGCACAGACGGACACACACACACACCCACAGACACA [CACACA_site4358] | 10.1 ± 0.23
CATCTTAGTTTGAGTTGTACAATATTTATAAAAATA [XGTACX_site693] | 8.44 ± 0.48
ACAAGTTTAACATTTCGTACTTATTGTGTTTTTTTT [XGTACX_site5487] | 8.97 ± 0.54
CTTTTAATATTAAGATGTACTTAGAATTTTTTTTTT [XGTACX_site8338] | 8.18 ± 0.53
TTTTTTGTTATTGGCGTGCACATATCCATTTATAGT | 8.99 ± 0.42
CATATATATTTATGTACACACATTAATAAAAAAAAA [CACACA_site5741] | 8.84 ± 0.52
ATATATATAAATAATTGTACTTAAAAAAAAAAAAGG [XGTACX_site6847] | 8.48 ± 0.55
TGTAGAGCGCAAAGTAGTACTACAAATTATGGAGGG [XGTACX_site3022] | 9.28 ± 0.31
AACAGCATATCACATTTCTTCAAAAAAAAATAAAAT [CACACA_negctrl_site733] | 8.69 ± 0.45
TTAAAACATAAAAAAAGTACATACAAATATATATAA [XGTACX_site789] | 8.78 ± 0.54

Sequence | gcPBM binding intensity (ln)
TTCAAAACTTAAAATCGTACAAGACAATTATTATAT [XGTACX_site6626] | 8.63 ± 0.42
AATTATATTACGAAATGTACATATAATAATGTATAT [XGTACX_site4410] | 8.75 ± 0.34
TACAAAATAACTAGCACACATATGTATAAACATATA [CACACA_site5948] | 9.03 ± 0.5
TATGTCAATCAAGCAAGTACATATATATATAAATAT [XGTACX_site7554] | 8.9 ± 0.44
TTAAATGGAAAAATATGTACATATATATATATATTT [XGTACX_site2286] | 8.84 ± 0.35
ATATTAAATTCAATTTAATGTTTTGTGAATTTTAGA [CACACA_negctrl_site1421] | 8.29 ± 0.4
TGAACTCATAGATTTAGTACATATATAAAAAAATTC [XGTACX_site1692] | 8.52 ± 0.44
GATTAATTTAAAAAATGTACATTTTATTGTATAACC [XGTACX_site5539] | 8.62 ± 0.45
TAAACACCCATATAAACACACATACATACATACATA [CACACA_site5383] | 9.53 ± 0.4
CCAAGAAACCAAAAAAGTACATACATGGTTATAATT [XGTACX_site4249] | 8.96 ± 0.55
ACAATATGTATATATATATATATGCAAATGTATAAA [CACACA_negctrl_site53] | 9.03 ± 0.38
CCATATATAATGACATGTACTCAAAAAAAAAAAAAA [XGTACX_site685] | 8.61 ± 0.47
TTTCTCTTTTTTTGGGGTACAACCAATCCTATAATA [XGTACX_site297] | 8.5 ± 0.49
ATACATATATATATATGTACATATATTTATATTTAT [XGTACX_site3155] | 8.83 ± 0.41
TTTTTAAAAAAAAATAGAGAGTCAAAGTATGTGGCG [CACACA_negctrl_site194] | 8.46 ± 0.58
TTTCAAGGATTTAATTTATGGAAACCTTCTTCATTT [GTGCAC_negctrl_site504] | 8.34 ± 0.59
TAATTCAAACGTGTATGTATATTACTCGAAGAAATA [CACACA_negctrl_site1779] | 8.46 ± 0.36
CATATAAGACAAAAGGTGCAATTTTAATGCTTTTAT [GTGCAC_site9432] | 8.82 ± 0.44
AACCCTTTTGATTTTTCTTTTTTTTTTTTTTTAAAT [CACACA_negctrl_site1667] | 8.47 ± 0.6
AGAAGGATATTATGAAGTACACATATTGTATATGGT [XGTACX_site7503] | 8.9 ± 0.38
ACAGTTTGTCTGAGTAGTACATAAATACTTGAAAGG [XGTACX_site7792] | 8.79 ± 0.45
TAGTAAAATGGAACACGTACATATATCTATGTATAA [XGTACX_site6103] | 9 ± 0.37
